To fix the notation:
B1: OR4K15 (parent)
chain: GUUAACGGUCAUAGGCCAUGGAAACUAGGAGCACCAUUUCGCUGCCAGUGAAGAAAUGAACAAAGAAAAUCUGGGCCAGGCAGGCAUCAAAAGAAAUAGUCUUGCGCUCAACCAGAAAGUCUGUAAUCAUUUUAAGGGUA

Read counts are not given, so values of variants with three or more changes are uncertain.

The values that follow come from the RNAGym collection of RNA variant scans (doi:10.7554/elife.90254).

The variants in this series derive from B1. In words: self-cleavage, relative activity (ratio to wild type); higher = more cleavage; in vitro, sequencing; the parent is a self-cleaving ribozyme.
For the variant GUUAACGGUCUUAGGCCAUGGAAACUAGGAGCACCAUUUCGCUGCCAGUGAAGAAAUGAACAAAGAAAAUCUGGGCCAGGCAGGCGUCAAAAAAAAUAGUCUUGCGCUCAACCAGAAAGUCCGUAAUCAUUUUAAGGGUA [A11U A86G G93A U122C], the self-cleavage was 0.76. To GUUAACGGUCUUAGGCCAUGGAAACUAGGAGCACCAUUUCGCUGCCAGCGAAGAAAUGAACAAAGAAAAUCUGGGCCAGGCAGGCAUCAAAAGAAAUAGUCUUGCGCUCACCCAGAAAGUCUGUAAUCAUUUUAAGGGUA [A11U U49C A111C] belongs 0.01; to GUUAACGGUCUUAGGCCAUGGAAACUAGGAGCACCAUUUCGCCGCCAGUGAAGAGAUGAACAAAGAAAAUCUGGGCCAGGCAGGCAUCAAAAGAAAUAGUCUUGCGCUCAACCAGAAAGUCUGUAAUCAUUUUAAGGGUA [A11U U43C A55G], 1.52; to GUUAACGGUCUUAGGCCAUGGAAACUAGGAGCACCAUUUCGCUGCCAGUGAAGAAAUGAACAAAGAAAAUCUGGGCCAGGCAGGCAUCAAAAGGAACAGUCUUGCGCUCAACCAGAAAGCCUGUAAUCAUUUUAAGGGUA [A11U A94G U97C U120C], 0.27. As for GUUAACGGUCUUAGGCCAUGGAAACUAGGAGCACCAUUUCGCUGCCAGUGAAGAAAUGAACAAAGAAAAUCUGGGCCAGGCAGGCAUCAAAAGAAAUAGUCUUGCGCUCAACCAGGAUGUCUGUAAUCAUUUUAAGGGUA [A11U A116G A118U], the self-cleavage worked out at 0.08. Take GUUAACGGUCUUAGGCCAUGGAAACUAGGAGCACCAUUCCGCAGCCAGUGAAGAAAUGAACAAAGAAAAUCUGGGCCAGGCAGGCAUCAAAAGGAAUAGUCUUGCGCUCAACCAGAAAGUCUGUAAUCAUUUUAAGGGUA [A11U U39C U43A A94G]: the self-cleavage is 1.27. GUUAACGGUCUUAGGCCAUGAAAACUAGGAGCACCAUUUCGCUGCCAGUGAAGAAAUGAACGAAGAAAAUCUGGGCCAGGCAGGCAUCAAAAGAAAUAGUCUCGCGCUCAACCAGAAAGUCUGUAAUCAUUUUAAGGGUA [A11U G21A A62G U103C]: the self-cleavage was 2.31. GUUAACGGUCUUAGGCCAUGGAAACUAGGAGCACCAUUUCGCUGCCAGUGAAGAAAUGAACAAAGAAAAUCUGGGCCAGGUAGGCAUCAAAAGAAAUAGUCUUGCGCCCAACCAGAAAGUCUGUAAUCAUUUUUAGGGUA [A11U C81U U108C A134U]: the self-cleavage was found to be 0.02.

As to GUUAACGGUCUUAGGCCAUGGAAACCAGGAGCACCAUUUCGCUGCCAGUGAAGAAAUGAACAAGGAAAAUCUGGGCCAGGCAGGCAUCAAAAGAAAUAGUCUUGCGCUCAGCCAGAAAGUCUGUAAUCAUUGUAAGGGUA [A11U U26C A64G A111G U132G], the self-cleavage is 0.01. As for GUUAACGGUCUUAGGCCAUGGAAACUAGGAGCACCAUUUCGCUGCCAGUGAAGAAAUGAACAAGGAAAAUCUGGGCCAGGCAGGCAUCUAAAGAGAUAGUCUUGCGCUCAACCAGAAAGUCUGUAAUCAUUUUAAGGGUA [A11U A64G A89U A95G], the figure is 2.29. For the variant GUUAACGGUCUUAGGCCAUGGAAACUAGGAGCACCAUUUCGCUGCCAGUGAGGAAAUGAACAAGGAAAAUCUGGGCCAGGCAGGCAUCAAAAGAAAUAGUCUUGCGCUCAACCAGAAAGUCUGUAAUCAUUUUAAGGGUA [A11U A52G A64G], the self-cleavage was 2.02. As for GUUAACGGUCUUAGGCCAUGGAAACUAGGAGCACCAUUUCGCUGCCAGUGAAGAAAUGAACAAAGAAAAACUGGGCCAGGCAGGCAUCAAAAGAAAUAGCCUUGCGCUCAACCAGAAAGUCUGUAAUCAUUCUAAGGGUA [A11U U70A U100C U132C], the self-cleavage is 2.03. For the variant GUUAACGGUCUUAGGCCAUGGAAACUAGGAGCACCAUUUCGCUGCCAGUGAAGAAAUUAACAAAGAAAAUCUGGGCCAGGCAGGCAUCAAAAGGAAUAGUCUUGCGCUCAACCAGAAAGUCUGUAAUCAUUUUAAGGGUA [A11U G58U A94G], the self-cleavage amounted to 1.12. As for GUUAACGGUCUUAGGCCAUGGAAACUAGGAGCACCAUUUCGCUGCCAGUGAAGAGAUGAACAAAGAAAAUCUGGGCCAGGCAGGCAUCAAAGGAAAUAGUCUUGCGCUCAACCAGAAAGUCUGUAAUCAUUUUAAGGGUA [A11U A55G A92G], the figure is 1.82; as for GUUAACGGUCUCAGGCCAUGGAAACUAGGAGCACCAUUUCGCUGCCAGUGAAGAAAUGAACAAAGAAAAUCUGGGCCAGGCAGGCAUCAAAAGAAAUAGUCUUGCGCACAACCAGAAAGUCUGUAAUCAUUUUAAGGGUA [A11U U12C U108A], 0.12. On to GUUAACGGUCUUAGGCCAUGGAAACUAGGAGCACCAUUUCGCUGCCAGUGAAGAAAUGAACAAAGAAAAUCUGGGCCAGGCAGGCAUCAAAAGAAGUAGUCUUGCGCUCAACCUGGAAGUCUGUAAUCAUUUUAAGGGUA [A11U A96G A114U A116G], for which the self-cleavage came to 0. To GUUAACGGUCUCAGGCCAUGGGAACUAGGAGCACCAUUUCGCUGCCAGUGAAGAAAUGAACAAAGAAAAUCUGGGCCAGGCAGGCAUCAAAAGAAAUAGUCUUGCGCUCAACCAGAAAGUCUGUAAUCAUUUUAAGGGUA [A11U U12C A22G] belongs 0.74.

Take GUUAACGGUCUUAGGCCAUGGAAACUAGGAGCACCAUUUCGCUGCCAGUGAAGAAAUGAACAAAGAAAAUCUGGGCCAGGCUGGCAUCAAAAGAAGUAGUCUUGCGCUCAACCAGAAAGUCUGUAAUCAUUUUAAGGGUA [A11U A82U A96G]: the self-cleavage came out at 0.23. As for GUUAACGGUCUUAGGCCAUGGAAACUAGGAGCACCAUUUCGCUGCCAGUGAAGAAGUGAACAAAGAAAAUCUGGGCCAGGCAGGCAUCAAAAGAAAUAGUCUUGCGCUCAACCAGUAAGUCUGUAAUCAUUUUAAGGGAA [A11U A56G A116U U139A], the figure is 0.32; as for GUUAACGGUCUUAGGCCAUGGAAACUAGGAGCACCAUUUCGAUGCCAGUGAAGAAAUGGACAAAGAAAAUCUGGGCCAGGCAGGCAUCAAAAGAAAUAGUCUUGCGCUCAACCAGAAAGUCUGUAAUCGUUUUAAGGGUA [A11U C42A A59G A129G], 0.6. Consider GUUAACGGUCAAGGGCCAUGGAAACUAGGAGCACCAUUCCGCUGCCAGUGAAGAAAUGAACGGAGAAAAUCUGGGCCAGGCAGGCAUCAAAAGAAAUAGUCUUGCGCUCAACCAGAAAGUCUGUAAUCAUUUUAAGGGCA [U12A A13G U39C A62G A63G U139C], for which the self-cleavage is 1.15.
